Experimental data published in the supplement of paper PMC4723716.
± gives the uncertainty stated by the source. Whole data set: some 9,900 compounds, median “viability index relative to DMSO control” near 1, cut for the lowest 2% near 0.85. The list shows a part of the results.

System: Plasmodium falciparum NF54 stage V gametocytes
Experiment: viability index relative to DMSO control (fraction); higher = less gametocyte killing
Details: 2.5 µM, incubation time: 72 h
Protocol: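 Broad DOS informer set and blood-stage-active DOS compounds screened in duplicate at 2.5 µM against P. falciparum NF54 stage V gametocytes with the serum-free one-step SaLSSA (1536-well): 72 h at 37 °C under low oxygen, then saponin lysis and MitoTracker Red CMXRos staining, with high-content imaging. Viability index = viable-object count divided by the plate mean of DMSO wells (0 = killed, about 1 = inactive).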

[1] = library set: Broad Institute DOS

| Compound | viability index [1] | viability index (library set: Broad Institute Blood Stage) |
| --- | --- | --- |
| C[C@H](CO)N1C[C@H](C)[C@H](CN(C)Cc2ccccc2)Oc2ccc(NC(=O)Nc3ccccc3)cc2C1=O | 1.11 ± 0.092 | – |
| O=C(CC(F)(F)F)N1C[C@@H]2[C@H](c3ccccc31)[C@H](CO)N2Cc1cccnc1 | 1.03 ± 0.012 | – |
| Cc1cccc(-c2ccc([C@@H]3[C@H](CO)N4CCCCN(S(=O)(=O)c5ccccc5F)C[C@@H]34)cc2)c1 | 0.884 ± 0.06 | – |
| COc1cccc(NC(=O)Nc2ccc3c(c2)C(=O)N(C)C[C@@H](OC)[C@@H](C)CN[C@H](C)CO3)c1 | 1.026 ± 0.01 | – |
| CCCNC(=O)N1C[C@@H](O)COC[C@@H]2O[C@H](CC(=O)OC)CC[C@H]21 | 1.09 ± 0.0072 | – |
| O=S(=O)(c1ccccc1)N1C[C@H]2[C@@H](c3ccccc31)[C@@H](CO)N2Cc1ccccn1 | 1.05 ± 0.091 | – |
| COCC(=O)Nc1ccc2c(c1)C(=O)N(C)C[C@@H](OC)[C@H](C)CN(CCc1ccccc1)[C@@H](C)CO2 | 1.07 ± 0.029 | – |
| COc1cccc(S(=O)(=O)N[C@@H]2CC[C@@H](CC(=O)NC3Cc4ccccc4C3)O[C@H]2CO)c1 | 0.964 ± 0.12 | – |
| COCCN(C[C@@H]1[C@@H](c2ccccc2)[C@@H](CO)N1C(C)=O)C(=O)c1cccnc1 | 1.03 ± 0.041 | – |
| CCCC(=O)Nc1ccc2c(c1)C(=O)N(C)C[C@@H](OC)[C@H](C)CN(C(=O)c1ccccn1)[C@H](C)CO2 | 1 ± 0.056 | – |
| O=C(C[C@@H]1CC[C@H]2[C@@H](COC[C@@H](O)CN2Cc2ccc(C(F)(F)F)cc2)O1)N1CCc2ccccc2C1 | 1.091 ± 0.0047 | – |
| COc1ccc(NC(=O)N[C@@H]2CC[C@H](CCNC(=O)CN3CCOCC3)O[C@H]2CO)cc1 | 0.972 ± 0.1 | – |
| C/C=C/c1ccc([C@H]2[C@@H](CO)N(C(=O)Nc3ccccc3F)[C@H]2C#N)cc1 | 1.13 ± 0.026 | – |
| O=C(c1ccc(F)cc1)N1CC(=O)N2[C@@H](CO)[C@@H](c3ccc(C#CCC4CCCC4)cc3)[C@@H]2C1 | 0.967 ± 0.031 | – |
| CCC(=O)N1CC(=O)N2[C@H](CO)[C@@H](c3ccc(C#CCC(C)C)cc3)[C@H]2C1 | 0.989 ± 0.038 | – |
| C[C@@H]1CN([C@H](C)CO)C(=O)CCCn2cc(nn2)CO[C@@H]1CN(C)C(=O)Nc1cccc(C(F)(F)F)c1 | 1.09 ± 0.014 | – |
| NCC[C@@H]1CC[C@@H](NC(=O)Cc2ccncc2)[C@@H](CO)O1 | 1.16 ± 0.097 | – |
| C[C@H](CO)N1C[C@H](C)[C@@H](CN(C)C(=O)NC2CCCCC2)Oc2ccc(N(C)C)cc2CC1=O | 0.99 ± 0.085 | – |
| Cc1noc(C)c1NC(=O)N(C)C[C@@H]1Oc2ccc(NC(=O)Cc3cn(C)c4ccccc34)cc2CC(=O)N([C@H](C)CO)C[C@H]1C | 0.95 ± 0.21 | – |
| CC(C)[C@@H]1COCn2nncc2CCCC(=O)N1 | 0.884 ± 0.0094 | – |
| Cc1ccc(S(=O)(=O)Nc2ccc3c(c2)C(=O)N([C@@H](C)CO)C[C@@H](C)[C@H](CN(C)S(=O)(=O)c2cccs2)OCCCC[C@@H](C)O3)cc1 | 1.13 ± 0.086 | – |
| COc1ccc2c3c([C@@H](CO)N(C[C@]33CN(C3)S(=O)(=O)c3ccccc3)C(C)=O)n(C)c2c1 | 0.956 ± 0.031 | – |
| COc1ccc2c3c([nH]c2c1)[C@@H](CO)N(C[C@]31CN(C1)C(=O)Nc1c(C)noc1C)C(=O)Nc1ccc(F)cc1 | 0.948 ± 0.092 | – |

| Compound | viability index [1] | viability index (library set: Broad Institute Blood Stage) |
| --- | --- | --- |
| CCCNC(=O)Nc1ccc2c(c1)OC[C@@H](C)N(Cc1ccccc1)C[C@@H](C)[C@H](OC)CN(C)C2=O | – | 0.942 ± 0.039 |
| CCCN(C[C@H]1N[C@H](CO)[C@@H]1c1ccccc1)C(=O)COC | 1.061 ± 0.0096 | – |
| C[C@@H]1CCCCO[C@H](CN(C)C(=O)Nc2ccc(C(F)(F)F)cc2)[C@H](C)CN([C@@H](C)CO)C(=O)c2cc(NS(=O)(=O)c3cn(C)cn3)ccc2O1 | 1.08 ± 0.041 | – |
| C[C@H]1CN([C@@H](C)CO)C(=O)c2cc(NC(=O)C3CC3)ccc2O[C@@H]1CN(C)S(=O)(=O)c1ccccc1 | 0.986 ± 0.061 | – |
| COc1ccc(S(=O)(=O)Nc2ccc3c(c2)C(=O)N([C@@H](C)CO)C[C@H](C)[C@H](CN(C)S(=O)(=O)c2ccc(Cl)cc2)OCCCC[C@H](C)O3)cc1 | 0.989 ± 0.11 | – |
| COCC#Cc1ccc([C@H]2[C@@H](CO)N3C(=O)CN(C(=O)C4CCCCC4)C[C@@H]23)cc1 | 1.03 ± 0.058 | – |
| COCCNC(=O)C[C@H]1CC[C@H]2[C@H](COc3ccc(NC(=O)Nc4cccc(F)c4)cc3C(=O)N2C)O1 | 1.09 ± 0.098 | – |
| CO[C@H]1CN(C)C(=O)c2cc(NC(=O)C3CC3)ccc2OC[C@@H](C)N(Cc2cc(F)ccc2F)C[C@H]1C | 0.943 ± 0.04 | – |
| C[C@@H]1CCCCO[C@H](CN(C)S(=O)(=O)c2ccc(F)cc2)[C@H](C)CN([C@@H](C)CO)C(=O)c2cc(N(C)C)ccc2O1 | 1.06 ± 0.041 | – |
| O=C(NC[C@@H]1[C@@H](c2ccccc2)[C@@H](CO)N1Cc1cccnc1)c1ccccn1 | 1.03 ± 0.052 | – |
| CCS(=O)(=O)Nc1ccc2c(c1)C(=O)N(C)[C@H]1CC[C@@H](CC(=O)N[C@H]3CCN(Cc4ccccc4)C3)O[C@@H]1CO2 | 1.12 ± 0.17 | – |
| N#C[C@@H]1[C@H](c2ccc(-c3cccc(F)c3)cc2)[C@@H](CO)N1C(=O)CN1CCOCC1 | 0.984 ± 0.13 | – |
| CO[C@H]1CN(C)C(=O)c2cc(NC(=O)NC3CCCCC3)ccc2OC[C@H](C)N(CC2CCOCC2)C[C@@H]1C | 1.05 ± 0.026 | – |
| CO[C@@H]1CC[C@H]2CCOc3c(C#N)cccc3C(=O)N(C)CCCC(=O)N(C)C[C@H]1O2 | 1.01 ± 0.046 | – |
| O=C(CC1CC1)N1CC2(C1)[C@H](c1ccccc1)[C@H](CO)N2Cc1ccccn1 | 1.07 ± 0.12 | – |
| CC(=O)N1[C@H](CO)[C@@H](c2ccccc2)C12CN(S(=O)(=O)c1ccccc1)C2 | 1.11 ± 0.03 | – |
| COCC#Cc1ccc([C@@H]2[C@@H](CO)N3C(=O)CN(C(=O)c4ccncc4)C[C@H]23)cc1 | 1.12 ± 0.087 | – |
| COc1ccc([C@H]2C/C=C/C[C@H](C)Oc3ccccc3C(=O)N(C)[C@@H](Cc3ccccc3)C(=O)N2)c(OC)c1.COc1ccc([C@H]2C/C=C\C[C@H](C)Oc3ccccc3C(=O)N(C)[C@@H](Cc3ccccc3)C(=O)N2)c(OC)c1 | 0.861 ± 0.046 | – |
| C[C@H]1CN([C@@H](C)CO)C(=O)Cc2cc(NS(=O)(=O)c3cccs3)ccc2O[C@H]1CN(C)CC1CCCCC1 | 1.02 ± 0.14 | – |
| CN(C[C@H]1N[C@@H](CO)[C@@H]1c1ccccc1)C(=O)c1ccccn1 | 1.1 ± 0.059 | – |
| O=C(NCC[C@@H]1CC[C@@H](NS(=O)(=O)c2ccc(F)cc2)[C@H](CO)O1)c1ccc2c(c1)OCO2 | 0.973 ± 0.045 | – |
| CNC[C@H]1OCCCC[C@@H](C)Oc2ccc(N)cc2C(=O)N([C@H](C)CO)C[C@H]1C | 1.16 ± 0.2 | – |
| C[C@@H]1CCCCO[C@H](CN(C)C(=O)Nc2ccccc2)[C@H](C)CN([C@H](C)CO)C(=O)c2cc(NC(=O)Nc3ccccc3)ccc2O1 | 0.966 ± 0.095 | – |

| Compound | viability index [1] | viability index (library set: Broad Institute Blood Stage) |
| --- | --- | --- |
| COc1cccc(CN2C[C@]3(CN(CC4CCOCC4)C3)c3c([nH]c4cc(OC)ccc34)[C@H]2CO)c1 | 1.09 ± 0.1 | – |
| O=C(Nc1cccc(F)c1)N1C[C@@H]2[C@H](c3ccccc31)[C@H](CO)N2C(=O)Cc1ccccn1 | 1.05 ± 0.095 | – |
| CCC(=O)Nc1ccc2c(c1)C(=O)N(C)C[C@H](OC)[C@H](C)CN(C(=O)Cc1cccnc1)[C@H](C)CO2 | 1.07 ± 0.02 | – |
| C[C@H](CO)N1C[C@H](C)[C@@H](CN(C)Cc2ccccc2)OCc2cn(nn2)CCCC1=O | 1.01 ± 0.04 | – |
| CO[C@@H]1CN(C)C(=O)c2cc(NC(=O)Nc3cc(F)ccc3F)ccc2OC[C@@H](C)NC[C@H]1C | 1.105 ± 0.0072 | – |
| O=S(=O)(c1ccc(F)cc1)N1C[C@@H]2[C@H](c3ccccc31)[C@@H](CO)N2Cc1ccccc1Cl | 0.898 ± 0.077 | – |
| CCCC(=O)Nc1ccc2c(c1)C(=O)N(C)[C@H]1CC[C@H](CC(=O)N3CCCCC3)O[C@@H]1CO2 | 1.05 ± 0.091 | – |
| CCc1cnc(N2[C@@H](C#N)[C@H](c3ccc(C#Cc4ccccc4F)cc3)[C@@H]2CO)s1 | 0.959 ± 0.07 | – |
| C[C@@H](NC(=O)C[C@@H]1C[C@@H]2c3cc(NS(=O)(=O)c4ccc(F)cc4)ccc3O[C@@H]2[C@H](CO)O1)c1ccccc1 | 1 ± 0.023 | – |
| O=C(C[C@@H]1C=C[C@H](NC(=O)C2CCC2)[C@@H](CO)O1)NC1CCCCC1 | 1.03 ± 0.031 | – |
| C/C=C/c1ccc2n(c1=O)C[C@@H]1[C@@H](CO)[C@H](C(=O)N3CCOCC3)[C@H]2N1CC1CCCC1.C/C=C\c1ccc2n(c1=O)C[C@@H]1[C@@H](CO)[C@H](C(=O)N3CCOCC3)[C@H]2N1CC1CCCC1 | 1 ± 0.062 | – |
| C[C@H](CO)N1C[C@H](C)[C@@H](CN(C)C(=O)Nc2ccc(C(F)(F)F)cc2)Oc2ncc(C3=CCCC3)cc2C1=O | 1.07 ± 0.011 | – |
| COc1ccc2c3c([nH]c2c1)[C@@H](CO)N(Cc1ccc(F)cc1)C[C@]31CN(C)C1 | 0.936 ± 0.018 | – |
| CCC(=O)N1C[C@@H](C)[C@H](OC)CN(C)C(=O)c2cc(NC(=O)Nc3ccc(Cl)cc3)ccc2OC[C@@H]1C | 1.03 ± 0.0041 | – |
| CS(=O)(=O)N1[C@H](CO)[C@@H](c2ccccc2-c2ccccc2F)[C@@H]1C#N | 1.17 ± 0.081 | – |
| CN1C(=O)c2cc(NC(=O)Nc3ccc(Cl)cc3)ccc2OC[C@@H]2O[C@@H](CC(=O)NCCN3CCCCC3)CC[C@@H]21 | 0.993 ± 0.13 | – |
| CO[C@H]1CN(C)C(=O)c2cc(NC(C)=O)ccc2OC[C@H](C)N(C(=O)Cc2ccccn2)C[C@H]1C | 1.15 ± 0.084 | – |
| CC(C)(C)[S@](=O)N1Cc2cc(C(=O)N3CCOCC3)nc(-c3cccc(-c4ccccc4F)c3)c2[C@@H]1CCO | 1.07 ± 0.044 | – |
| CN1C(=O)c2cc(NC(=O)Cc3cccs3)ccc2OC[C@H]2O[C@H](CC(=O)N[C@@H]3CCN(Cc4ccccc4)C3)CC[C@@H]21 | 1.1 ± 0.11 | – |
| COc1ccc(C[C@@H]2CCn3cc(nn3)COC[C@@H](c3ccccc3)NC2=O)cc1 | 1.02 ± 0.013 | – |
| COc1ccc(C(=O)N2C[C@@H]3[C@H](c4ccccc42)[C@@H](CO)N3C(=O)NC(C)C)cc1 | 1.06 ± 0.12 | – |
| N#C[C@H]1[C@@H](c2ccccc2)[C@H](CO)N1C(=O)c1cc(Cl)cc(Cl)c1 | 1.1 ± 0.14 | – |
| COc1ccccc1NC(=O)N1C[C@H](O)COC[C@@H]2O[C@H](CC(=O)N3CCC(Cc4ccccc4)CC3)CC[C@H]21 | 1.1 ± 0.022 | – |
